Results reported in article PMC12136788.
Numbering of substitutions follows the chain as printed. This is one part of the list.

T1: UNK ZnF1-6 (called full-length) (human, UniProt Q9C0B0 30-357)
T1 sequence: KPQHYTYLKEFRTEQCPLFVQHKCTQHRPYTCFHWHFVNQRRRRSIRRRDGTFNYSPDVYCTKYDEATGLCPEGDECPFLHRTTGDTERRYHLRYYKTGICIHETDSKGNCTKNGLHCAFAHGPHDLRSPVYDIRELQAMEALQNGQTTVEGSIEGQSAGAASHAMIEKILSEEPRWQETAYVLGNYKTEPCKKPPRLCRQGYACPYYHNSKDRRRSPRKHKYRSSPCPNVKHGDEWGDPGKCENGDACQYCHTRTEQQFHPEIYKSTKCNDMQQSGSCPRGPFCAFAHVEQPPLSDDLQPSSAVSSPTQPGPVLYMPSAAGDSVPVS

B1: chr5:138934237:138934351:+|3pUTR|ENSG00000044115|msi1_unk|FALSE|overlapping (ssRNA)
RNA: GGGAGUUCUACAGUCCGACGAUCUUUCCAAGAACAUAGUUUAAGUUGAUUAAAAAUGCUUUUAGAAUGCAGGAGCCUACUUCUAGCUGUAUUUUUUGUAUGCUUAAAUAAAAAUAAAAAUUCAUAACCAAAGAGAAUCCCACACAACAGAGGAUUGAGCAUCA
B2: ENSG00000198589:be:win_8401|CDS|ENSG00000198589|bound_else_gene|NA|bound_elsewhere_windowed (ssRNA)
RNA: GGGAGUUCUACAGUCCGACGAUCAAGCAGCUCUUUGCCUAUCCAGGAUGUGACGCUGGAAUCCGGGCCAUGGCGCUGUCUUACGACCAGAGGUGCAUCAUUUCUGGCAUGGCUUCAGGAAGCAUUGUGCUAUUUUACAACGACCAACAGAGGAUUGAGCAUCA
B3: chr2:30159184:30159288:+|3pUTR|ENSG00000119801|unk|FALSE|bound_elsewhere (ssRNA)
RNA: GGGAGUUCUACAGUCCGACGAUCAAAAUCUGGGCUGUUAGAGUGAAAAAGUGUGUUUUAUGUCAAUUGUGAAAGGAAAAUGUUAGGAGUAUGGUUUUUAAACUUGGGCUUCAUUUUAAACUUUUUUUUUUAAACCCAGUUAUUCAACAGAGGAUUGAGCAUCA
B4: ENSG00000198589:be:win_8051|CDS|ENSG00000198589|bound_else_gene|NA|bound_elsewhere_windowed (ssRNA)
RNA: GGGAGUUCUACAGUCCGACGAUCGCCAUGACUAUGAGGUCACAUGUGCUGCGGUGUGUGCGGAGCUAGGCCUGGUGUUGAGUGGUUCACAAGAAGGACCAUGUCUCAUACAUUCCAUGAAUGGAGACUUGUUGAGGACCUUGGCAACAGAGGAUUGAGCAUCA
B5: chr12:79773885:79773986:-|3pUTR|ENSG00000058272|msi1|FALSE|unique (ssRNA)
RNA: GGGAGUUCUACAGUCCGACGAUCGGUUAUUUAUUCUUUGUAUCUAAAACUGAACAGCUACUGUGCUAUAUUGAUUUUAUUGGUAGUAUUGAGCAGACCUUGUUUCUGCAUGAAACUAGUUGCAAAACCCACUAUUUUGGAAAUCAACAGAGGAUUGAGCAUCA
B6: chr2:182778012:182778113:+|3pUTR|ENSG00000077232|msi1|total|mutant (ssRNA)
RNA: GGGAGUUCUACAGUCCGACGAUCUAAAGAUAUAUGUGUUCAUGUAUUUUCUGAAAUUGCUUUCACCGAAAUUUUCCCACUGACCGUUGAUUUUUGAGGCAUCUAAUAUUUACAUAUUUGCCUUCUGAACUUUGUUUUGACCUGCAACAGAGGAUUGAGCAUCA
B7: chr4:70820284:70820384:-|3pUTR|ENSG00000132463|msi1_unk|FALSE|overlapping (ssRNA)
RNA: GGGAGUUCUACAGUCCGACGAUCUGAACUGGUAUGGUUUGGCAGAAUAGUUUUAAAUUUUGCUGUAUUUGAUUACUUAGAGAUAGGAAUUUUUAAAAAUCAAAACAAAAAAUACCACAGCUUAGUGUAAAUGACAAUUUGGCGCAACAGAGGAUUGAGCAUCA
B8: chr4:123402332:123402450:+|CDS|ENSG00000164056|unk|FALSE|unique (ssRNA)
RNA: GGGAGUUCUACAGUCCGACGAUCGACGAAGGGGAUUCCUAUUCAGAUAAUCCUUGCUCCUGUUCACAAUCACACUGCUGCUCUAGAUACCUGUGUAUGGGAGCCAUGUCUUUAUUUUUACCUUGCUUACUCUGUUAUCCUCCUCAACAGAGGAUUGAGCAUCA
B9: chr1:17068045:17068226:-|3pUTR|ENSG00000117115|msi1|total|mutant (ssRNA)
RNA: GGGAGUUCUACAGUCCGACGAUCCUCCUUCCACUGCCUUGACUUUCUUCCUUUUUAUUCCUGGUGCCAUCUGUCCAGGCAGCCCGACAAGAACUUGUUCGCCAGCAGCCAGAUUCAGGCCUUCCCAGGGGCAUAAUAAGUGACCAACAGAGGAUUGAGCAUCA
B10: chr7:149003559:149003660:-|3pUTR|ENSG00000155660|msi1|total|mutant (ssRNA)
RNA: GGGAGUUCUACAGUCCGACGAUCUUUUAUACUUUGGUGUUUCACUUCAUGCUCUGAAUACUGAAUAACCAUGAAUGACUGAACCGUUCCGUCCAGAUUUUUACAGAGGAUACAUCUAUUUUUAUCAUUAUUUGGGGUUUGAAACAACAGAGGAUUGAGCAUCA
B11: ENSG00000124766:be:win_301|CDS|ENSG00000124766|bound_else_gene|NA|bound_elsewhere_windowed (ssRNA)
RNA: GGGAGUUCUACAGUCCGACGAUCAAAGACAGCGACAAGAUCCCUUUCAUUCGAGAGGCGGAGCGGCUGCGCCUCAAGCACAUGGCUGACUACCCCGACUACAAGUACCGGCCCAGGAAGAAGGUGAAGUCCGGCAACGCCAACCAACAGAGGAUUGAGCAUCA
B12: chr15:38488102:38490688:-|three_prime_utr|ENSG00000172575|control|control|control (ssRNA)
RNA: GGGAGUUCUACAGUCCGACGAUCUACUCUGAAAGCAGAUAAUGAUGCCCUAAAGAUCCAACUGAAAUAUGCACAGAAGAAAAUAGAAUCCCUCCAGCUUGAAAAAAGCAAUCAUGUCUUAGCUCAAAUGGAGCAGGGUGACUGCAACAGAGGAUUGAGCAUCA
B13: chr10:128108355:128108456:-|CDS|ENSG00000148773|msi1|FALSE|unique (ssRNA)
RNA: GGGAGUUCUACAGUCCGACGAUCAGUGGACACUCCAACAAGCACAAAGCAAUGGCCUAAGAGAAGUCUCAGGAAAGCAGAUGUAGAGGAAGAAUUCUUAGCACUCAGGAAACUAACACCAUCAGCAGGGAAAGCCAUGCUUACCAACAGAGGAUUGAGCAUCA
B14: chr7:5527443:5527567:-|3pUTR|ENSG00000075624|msi1_unk|total|mutant (ssRNA)
RNA: GGGAGUUCUACAGUCCGACGAUCCAUCCCCCAAAGUUCACAAUGUGGCCGAGGACUUUGAUUGCACAUUGUUGUUUUUUUAACCGUCAUUCCAAAUAUGAGAUGCGUUGUUACAGGAAGUCCCUUGCCAUCCUAAAAGCCACCCAACAGAGGAUUGAGCAUCA
B15: chr22:35662008:35662068:+|3pUTR|ENSG00000221963|msi1_unk|FALSE|overlapping (ssRNA)
RNA: GGGAGUUCUACAGUCCGACGAUCUGAGCAACUUUUAAUUAUUCUCCUGUCCUGCAAUAUGAGUUAAUCUUCUCUGAUCGAUGUAGAUUCCAGGAAGGGGUGUCCAGGACAAUUACCUUCCUUCUGGAGAAACUUCCCUUAAUCCAACAGAGGAUUGAGCAUCA
B16: chr3:197282668:197282805:-|CDS|ENSG00000075711|msi1|total|mutant (ssRNA)
RNA: GGGAGUUCUACAGUCCGACGAUCUGGGAGAUUUCCAGCCUUCCAAGCUCUACUGUGACUUCAGAGACACUGCCAAGCAGCCUCCGCCCCCGUGCCGAGGUGAGAUAAAAAAUGUGUUCUGAAGCUGUUUUUUGGUGAUCAAUUCAACAGAGGAUUGAGCAUCA
B17: chr3:170392585:170392686:+|3pUTR|ENSG00000136603|msi1|total|mutant (ssRNA)
RNA: GGGAGUUCUACAGUCCGACGAUCUACAUUUUCCAAAUGAAUGAAAAUGUAUGUUUCUUUGUACUUUUUUAAAAAAAUCAGCUCCGUAACAAUACUAUAUGGUUUCAACCCGCCGGUAAUCUGCUUAUAUUUCUAAUGCAAACUCAACAGAGGAUUGAGCAUCA
B18: ENSG00000136451:be:win_4101|3pUTR|ENSG00000136451|bound_else_gene|NA|bound_elsewhere_windowed (ssRNA)
RNA: GGGAGUUCUACAGUCCGACGAUCGUCUUGGAACUGGAAUUGAGUUUCGAUGUUGAUGAACUGAUUCAACCAGGUGUUGAAGGCACGACAGCCACUGCUCUACGAAAAGGCAGAGUACGUUUUUCCCUUCUGGUUGUAACCUGGCAACAGAGGAUUGAGCAUCA
B19: chr4:76435395:76435496:+|5pUTR|ENSG00000138771|msi1|total|mutant (ssRNA)
RNA: GGGAGUUCUACAGUCCGACGAUCUUUUCUCUCCUAAGAAACAAACUAUGAACUGAUUGUUGAAAAAAAGAAGUAAAAAGUUUCCGCACAGCUUCUCUGUCUCUUCGGGACAAGUCCGAAAAUUCUGAAGUGAGCCGAAGCAUACAACAGAGGAUUGAGCAUCA
B20: chr11:18297563:18297669:-|CDS|ENSG00000110756|unk|FALSE|unique (ssRNA)
RNA: GGGAGUUCUACAGUCCGACGAUCGAUCUAAUUUCUCAACUGGAAGAAUUGAUCUUAAAAUUUGAACCUUUGGAUUCAGCUUGUAGCAGUAGAAGAAGCUCCAUUUCAUCACAUGUAAGUAUUCUCACCUUUAAAGGAUUUUGUCAACAGAGGAUUGAGCAUCA
B21: chr2:182777146:182777247:+|3pUTR|ENSG00000077232|msi1|total|mutant (ssRNA)
RNA: GGGAGUUCUACAGUCCGACGAUCUGAAGAUGAAGAAAAAGUUUAAAAGAAAUUCUGACAGAUGACAUCAGAAGACACCUAUUCCGAAUGUUACAUUUAUGAUGGGAAUGAAUGAACAUUAUCUCCGACUUGCAGUUGUACUGCCAACAGAGGAUUGAGCAUCA
B22: chr22:35662008:35662068:+|3pUTR|ENSG00000221963|msi1_unk|total|mutant (ssRNA)
RNA: B15 RNA with U83C, A84C

target: T1, UNK ZnF1-6 (called full-length); test: nsRBNS (natural sequence RNA bind-n-seq); RBNS binding buffer (assumed for nsRBNS): 25 mM Tris pH 7.5, 150 mM KCl, 3 mM MgCl2, 0.01% Triton X-100, 500 ug/ml BSA, 20 U/ml SUPERase-In, 4 C; UNK is unkempt and MSI1 is Musashi-1; names of the RNAs are library labels; protein concentration not given here; high values mean tight binding

Binder	binding signal [enrichment R]
B1	0.932
B2	0.545
B3	1.13
B4	0.748
B5	0.729
B6	0.382
B7	1.68
B8	0.557
B9	0.718
B10	0.574
B11	0.734
B12	0.685
B13	0.762
B14	0.534
B15	0.37
B16	0.513
B17	0.408
B18	0.558
B19	0.287
B20	0.455
B21	0.386
B22	0.484
